About 540 (0.36%) of roughly 150,000 compounds showed an effect of 50% or more. The list shows a part of the results.

The test system of this assay is Plasmodium falciparum. Nature of the assay: Primary screen in NF54 nanoGlo assay, in single point, at 2uM, 72h; a lower Z score goes with more inhibition. The format is functional, Erythrocyte. As to conditions: timepoint 72 hour.
Turning to `O=C(Nc1ccc(Oc2ccccc2)cc1)c1sc2ccccc2c1Cl`, the % Inhibition (usually the drop in the measured response relative to a control, in per cent) came to 6% and the Z score is -0.7.
Regarding `CCNc1cc(CNC(=O)N2CCC(CO)CC2)ccn1`, the “% Inhibition” value is recorded as 30% and the Z score was -3.44.
Turning to `O=C(CCc1ccc(F)c(Cl)c1)N1CC(n2cc(C3CC3)nn2)C1`, the “% Inhibition” value is given as -7% and the Z score is 0.87.
On to `Cc1ccc(N(C)S(=O)(=O)c2ccsc2C(=O)NC2CCC(C)CC2)cc1C` (configuration not stated), for which the “% Inhibition” value is reported as -5% and the Z score is on record as 0.88.
Turning to `CCc1n[nH]c(NC(=O)c2ncncc2Cl)c1Br`, the “% Inhibition” value is listed as -37% and the Z score was 4.38.
For the compound `CC(C)c1nc2ccc(C(=O)NCc3cccc(F)c3)cc2o1`, the “% Inhibition” value is reported as -17% and the Z score amounted to 1.55.
Taken in the same sequence, the figures for `CCn1cc(-c2nc(-c3ccc(C)c(OC)c3)no2)cn1` were -8% and 1.5.
The corresponding values for `Cc1cc(=O)n(CC(=O)Nc2cc(F)ccc2C)c(N2CCCCC2)n1` are 0% and -0.02.
The corresponding values for `COc1nn(C)cc1NC(=O)NCc1ncc(Br)cn1` are -2% and 0.24.
In the case of `CCc1nc(N)sc1C(=O)N1CCC[C@H](C(=O)Cc2ccccc2)C1`, the “% Inhibition” value is listed as -6% and the Z score is 0.79.
Taken in the same sequence, the figures for `Cc1ccc2[nH]nc(CNC(=O)COCC(F)(F)C(F)F)c2c1` were -8% and 1.6.
For the compound `O=C(NCc1ccco1)[C@H]1CCCN(S(=O)(=O)c2c[nH]c(C(=O)N3CCCC3)c2)C1`, the “% Inhibition” value came out at 4% and the Z score is -0.72.
`O[C@H]1CN(Cc2ccsc2)C[C@@H]1F`: the “% Inhibition” value was -15% and the Z score worked out at 1.47.
Taken in the same sequence, the figures for `COCC1CCN(C(=O)C[C@H]2CN(C(C)C)CCO2)CC1` were -5% and 0.67.
The corresponding values for `CN(CCc1ccncc1)C[C@@H](O)Cc1ccc2ccccc2c1` are -5% and 0.44.
Taken in the same sequence, the figures for `Cc1csc(NC(=O)c2cccc(CN3CC[C@H](O)C3)c2)n1` were -5% and 0.87.
`COCCN1CCN(C2CCN(c3cccc(-c4ccccc4)c3)CC2)CC1`: the “% Inhibition” value was -6% and the Z score stood at 1.18.
The corresponding values for `CCc1nc(C(=O)N2CCOC3CCCCC32)c[nH]1` (configuration not stated) are -9% and 1.41.
In the case of `Cc1nc(NC(=O)C(C)N2CCOC(Cn3cccn3)C2)sc1C` (configuration not stated), the “% Inhibition” value was -6% and the Z score was determined as 1.02.
The corresponding values for `CCOc1ccc(-c2nsc(NC(=O)COc3c(C)cccc3C)n2)cc1OC` are 0% and 0.
Taken in the same sequence, the figures for `Cc1cc2ccccc2c(N2CCN(CC(C)O)C(C)C2)n1` (configuration not stated) were -4% and 0.38.
As for `CCCNC(=O)N(C)CCc1noc(C(=O)NCc2ccc3c(c2)OCO3)n1`, the “% Inhibition” value is given as -22% and the Z score is recorded as 2.05.
Regarding `C1CCCCCC2(CCCCC1)OC[C@H](CN1CCCCC1)O2`, the “% Inhibition” value worked out at 8% and the Z score is -1.05.
For the compound `CCN1CC(NS(=O)(=O)CC2CCCC2(F)F)CC1=O` (configuration not stated), the “% Inhibition” value was found to be 25% and the Z score is reported as -2.81.
Regarding `C[C@H](O)c1nc2cc(NC(=O)c3cncn3C)ccc2[nH]1`, the “% Inhibition” value is -21% and the Z score was found to be 3.61.
Taken in the same sequence, the figures for `CCCc1cnc(C)nc1N1C[C@H](C(=O)O)[C@@H](C2CC2)C1` were -15% and 1.7.
`COCCn1ccnc1CN1CCO[C@H](C(=O)N(C)C)C1`: the “% Inhibition” value is given as -6% and the Z score turned out to be 1.17.
The corresponding values for `CCOc1ccccc1CCNc1nnc(CC)o1` are -9% and 1.34.
Taken in the same sequence, the figures for `O=C(Cn1ncccc1=O)NC(c1ccccc1)c1ccccc1` were -5% and 0.63.
Take `CN1CC(NC2CCc3c(F)ccc(Br)c32)CCC1=O` (configuration not stated): the “% Inhibition” value worked out at 9% and the Z score was -0.96.
The corresponding values for `COC(=O)CN(CC(=O)N1CC(=O)Nc2ccccc21)C1CCCC1` are -17% and 1.7.
For `N[C@H]1c2ccccc2C[C@@H]1Nc1nnc(C2CCC2)o1`, the “% Inhibition” value was -19% and the Z score amounted to 1.73.
Taken in the same sequence, the figures for `N[C@H]1CCC[C@@H](C(=O)N2CCC3(CC2)Cc2cccc(c2)Oc2cccc(c2)CCNC3=O)C1` were 2% and -0.3.
The corresponding values for `CC(C)(C)C(=O)N1CCC(C2CC2)CC1` are -6% and 1.
The corresponding values for `c1cc(-c2csc(C3CCN(c4cnccn4)CC3)n2)ccn1` are 8% and -0.99.
Take `O=C(Cc1ccc(F)cc1F)N1CCn2nccc2C1`: the “% Inhibition” value is recorded as -7% and the Z score came to 1.05.
Taken in the same sequence, the figures for `Cc1nc[nH]c1CN1CCCC[C@@H]1CCc1cccs1` were -6% and 1.18.
The corresponding values for `O=C1NCCCC[C@@H]1N1CCN(S(=O)(=O)c2ccccc2)CC1` are -3% and 0.43.
Taken in the same sequence, the figures for `C[C@H]1CCN(Cc2cccc3ncccc23)[C@@H](CO)C1` were -10% and 1.64.
For `CN1CCN(C(=O)CC[C@@H]2NC(=O)NC2=O)[C@@H](c2ccccc2)C1`, the “% Inhibition” value is given as -12% and the Z score came out at 1.49.
The corresponding values for `CCCn1nccc1C1CCN(C(=O)CNS(=O)(=O)C2CC2)CC1` are -13% and 2.39.
The corresponding values for `CC(C)c1ccc(OCC2c3ccsc3CCN2C(=O)CN(CC2CCCO2)C(=O)c2ccc(F)cc2)cc1` (configuration not stated) are -7% and 1.05.
The corresponding values for `CCC(=O)N1CCC[C@@](NCc2ccc(Cl)cc2)(c2nnnn2C2CCCC2)C1` are 7% and -0.92.
Turning to `COc1ccc(Oc2c(CN(CC(C)C)C(=O)c3ccccc3Cl)c(-c3ccccc3)nn2C)cc1`, the “% Inhibition” value is given as -12% and the Z score came out at 1.62.
Turning to `CC(=O)N1CCCc2cc(C[C@H]3CCCO3)ccc21`, the “% Inhibition” value was -10% and the Z score amounted to 2.09.
The corresponding values for `O=C1CN(Cc2ncnn2CCF)[C@H](c2ccccc2)CN1` are 5% and -0.93.
The corresponding values for `COc1ccc(-c2cnc3ncnn3c2)c(-n2cccn2)c1` are -8% and 1.18.
As for `COc1cc(N2CCO[C@@H](C)C2)ncn1`, the “% Inhibition” value is on record as -3% and the Z score was 0.28.
In the case of `Cc1cc(C(=O)N(CCC(=O)NCCCN2CCOCC2)CCC(C)C)c(C)o1`, the “% Inhibition” value is recorded as -19% and the Z score turned out to be 2.31.
The corresponding values for `CCc1ncoc1C(=O)Nc1cnc(CC2CC2)nc1` are 4% and -0.72.
The corresponding values for `Cc1nc(C)c(CCNC(=O)NCC[C@H]2CCCO2)s1` are 8% and -1.
Taken in the same sequence, the figures for `O=C(N[C@H]1CCN(Cc2cc3ccccc3o2)C[C@@H]1O)c1cnccn1` were 4% and -0.37.
Consider `CN(c1ccccc1F)S(=O)(=O)c1cccc(C(=O)NC2CC2)c1`, for which the “% Inhibition” value is reported as -10% and the Z score is given as 1.47.
As for `O=C(NCc1nnc2cc(C(F)(F)F)ccn12)c1cc[nH]c(=O)c1`, the “% Inhibition” value amounted to 19% and the Z score was -2.37.
Consider `O=C(N[C@H]1CCc2ncnn2C1)c1cncc(-c2ccc(Cl)cc2)c1`, for which the “% Inhibition” value was -1% and the Z score was 0.09.
Regarding `CNc1nc(C)cc(N[C@H]2CC(C)(C)Cc3nc(C(C)(C)C)ncc32)n1`, the “% Inhibition” value is 3% and the Z score is given as -0.44.
